# From PubChem BioAssay AID1030 (National Center for Advancing Translational Sciences (NCATS), 2008)
# The campaign covered roughly 220,000 compounds. About 16,000 (7.3%) were called active. This list was built around the results that the source calls inconclusive (neither active nor inactive); the mix of calls is not that of the screen. The call rests on the fitted dose curve; in most records, active means well fitted inhibition curve with a large enough effect (not every such curve was filed as active); inconclusive means small, poorly fitted or top-dose-only effect, or another doubt; inactive means no such curve, though single readings can be large or run the other way. Potencies of inconclusive entries are left out as doubtful fits.
# Target: Aldehyde dehydrogenase 1A1 (Homo sapiens) (UniProt P00352)
# UniProt P00352, sequence (P00352 whole entry, looked up): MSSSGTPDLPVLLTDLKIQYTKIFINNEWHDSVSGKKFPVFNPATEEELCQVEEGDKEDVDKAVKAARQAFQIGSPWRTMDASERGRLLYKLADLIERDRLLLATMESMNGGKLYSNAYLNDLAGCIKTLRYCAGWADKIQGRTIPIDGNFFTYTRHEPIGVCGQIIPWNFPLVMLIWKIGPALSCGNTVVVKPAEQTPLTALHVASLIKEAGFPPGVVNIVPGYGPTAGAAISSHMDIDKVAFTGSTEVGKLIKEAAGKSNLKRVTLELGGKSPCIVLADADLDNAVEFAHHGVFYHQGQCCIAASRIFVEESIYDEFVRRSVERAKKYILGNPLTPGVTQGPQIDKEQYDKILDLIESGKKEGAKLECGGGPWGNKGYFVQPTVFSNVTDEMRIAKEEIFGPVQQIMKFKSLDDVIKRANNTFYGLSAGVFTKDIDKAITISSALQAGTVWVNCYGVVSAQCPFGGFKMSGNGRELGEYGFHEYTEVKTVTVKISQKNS
# Test: qHTS Assay for Inhibitors of Aldehyde Dehydrogenase 1 (ALDH1A1);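 on activity, negative = inhibition: plate controls were no enzyme wells and a reference inhibitor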
# Settings: Purified ALDH1A1, NADH fluorescence, propionaldehyde substrate; series mostly up to 75.3 µM
# Potency means the concentration at half of the fitted maximal effect; tags describe the fitted curve by direction and shape.
Structure (SMILES),Potency,"activity, negative = inhibition"
O=C(C1CCCN(S(=O)(=O)c2ccc(F)cc2)C1)N(Cc1cccs1)C1CC1 (stereo not given),active: 17.8 µM,
CN(C)c1cccc(C(=O)OCC(=O)N(Cc2ccccc2)C2CCS(=O)(=O)C2)c1 (stereo not given),"inconclusive [inhibitor, single point]",
COc1ccc(OCCSc2nnc(CC(=O)Nc3cccc(Cl)c3Cl)n2C)cc1,"inconclusive [inhibitor, single point]",
N#C/C(=C\c1ccc(-c2cccc(Cl)c2)o1)C(=O)Nc1cccc2cccnc12,inactive,
CC(C)Cn1cc(C(=O)NCc2cccs2)c2c3ccccc3n(C)c2c1=O,active: 1 µM,
COC(=O)Cn1c2ccc(C)cc2c2nc(C)sc21,"inconclusive [inhibitor, single point]",
Cc1ccn2cc(CC(=O)O)nc2c1,"inconclusive [inhibitor, partial curve]",
CC(C)(C)c1[nH]nc2c1C(C1C=CCCC1)C(C#N)=C(N)O2 (stereo not given),"inconclusive [inhibitor, single point]",
CCOC(=O)C1CCCN(C(=O)c2cccs2)C1 (stereo not given),inactive,
CCCCOC(=O)Nc1ccc2c(C)cc(=O)oc2c1,"inconclusive [inhibitor, partial curve]",
COc1ccc(CCC(=O)NNC(=S)NCc2ccc(F)cc2)cc1,inactive,
CCN(c1cccc(C)c1)S(=O)(=O)c1ccc2c(c1)CCN2C(C)=O,inactive,
Cc1ccc(CSC2=Nc3ccccc3C3=NC(CCC(=O)NCc4ccco4)C(=O)N23)cc1 (stereo not given),"inconclusive [inhibitor, single point]",
Cc1cc(C(=O)CSc2nnc(N)s2)c(C)n1Cc1cccs1,"inconclusive [inhibitor, single point]",
CC1CN(CCCCOc2ccc3ccccc3c2)CC(C)O1 (stereo not given),inactive,
CC1CCCN(C(=O)COC(=O)c2n[nH]c3ccccc23)C1 (stereo not given),"inconclusive [inhibitor, single point]",
CCOC(=O)C1(CC2CC2)CCN(S(=O)(=O)C[C@]23CC[C@H](CC2=O)C3(C)C)CC1,inactive,
CN(C)C(=O)CCc1nc2sc3c(c2c(=O)[nH]1)CCCC3,inactive,
O=C(Nc1cccc(S(=O)(=O)N2CCCCC2)c1)c1ccccc1NS(=O)(=O)c1ccc(F)cc1,"inconclusive [inhibitor, single point]",
CC(C)=NNc1nc2c(c(=O)n(C)c(=O)n2C)n1CCc1ccccc1,"inconclusive [inhibitor, partial curve]",
NC(=O)COC(=O)c1cccc(S(=O)(=O)N2CCN(c3ccccc3)CC2)c1,"inconclusive [inhibitor, partial curve, poor fit]",
CCOC(=O)C1(N(CC)CC)Sc2cc(C)ccc2NC1=O (stereo not given),"inconclusive [inhibitor, single point]",
CC1CCC2C(=O)N3C(CCC(C)[C@@H]3c3cccc(N4CCOCC4)c3)C(=O)N2C1c1cccc(N2CCOCC2)c1 (stereo not given in full),,inactive: 5.87% [at 13.5 µM]
Cc1ccc(C)c(N2CCN(C(=O)c3cc4ccccn4n3)CC2)c1,"inconclusive [inhibitor, single point]",

Structure (SMILES),Potency,"activity, negative = inhibition"
N/C(=N\OC(=O)c1cccc2ccccc12)c1ccc(Br)cc1,"inconclusive [inhibitor, single point]",
Cc1ccc(-c2c3c(nc4sc(C(N)=O)c(N)c24)CCC3)cc1,"inconclusive [inhibitor, single point]",
COC(=O)c1ccc(NC(=O)c2ccccc2CC[N+](=O)[O-])cc1,"inconclusive [inhibitor, single point]",
O=c1c(-c2nc3ccccc3s2)cccn1Cc1ccc(Cl)cc1,"inconclusive [inhibitor, partial curve]",
O=C(CSc1nnc2c(n1)[nH]c1ccccc12)Nc1ccc2c(c1)OCO2,"inconclusive [inhibitor, partial curve]",
Cc1cccc(Cn2c(C(=O)OC(C)C)cc3c2ccn3C)c1,"inconclusive [inhibitor, partial curve]",
Cc1cc(NC(=O)CSc2nc(C3CC3)nc3sc(C)c(C)c23)no1,"inconclusive [inhibitor, single point]",
Cc1cccc(C(C)C)c1NC(=O)COC(=O)Cc1ccsc1,inactive,
COc1cc(OC)cc(C(=O)NC(=S)NNC(=O)[C@H]2C[C@@H]2c2ccccc2)c1,"inconclusive [inhibitor, single point]",
C=CCn1c(SCC(=O)c2[nH]c(C)c(C(=O)OCC)c2C)nc2scc(-c3ccc(OC)c(OC)c3)c2c1=O,inactive,
O=C(N/N=C/c1ccco1)c1cccc(N2Cc3ccccc3C2)c1,active: 20 µM,
O=C1c2ccccc2C(=O)c2c(Nc3cc4c5c(ccc6c7ccc8c9c(cc(Nc%10cccc%11c%10C(=O)c%10ccccc%10C%11=O)c(c3c56)c97)-c3ccccc3C8=O)C(=O)c3ccccc3-4)cccc21,,inactive: -11.6% [at 13.5 µM]
CCOC(=O)C1(C)/C(=N/Nc2cccc(Cl)c2)C(=O)C(=O)N1c1ccccc1 (stereo not given),"inconclusive [inhibitor, single point]",
O=C(CSc1nnc(-c2cnccn2)n1Cc1ccco1)Nc1ccc(Br)cc1,"inconclusive [inhibitor, single point]",
N/C(=N\OC(=O)C(c1ccccc1)c1ccccc1)c1cccnc1,"inconclusive [inhibitor, single point]",
CCCc1nnc(NC(=O)c2c(O)c3cccc4c3n(c2=O)CC4)s1,"inconclusive [inhibitor, partial curve]",
O=C1NN(c2ccc(Cl)cc2)C(=O)/C1=C\c1ccc(-c2cccc(C(=O)O)c2)o1,"inconclusive [inhibitor, partial curve]",
O=C(COc1ccccc1)N1CCN(c2nnc(-c3ccccc3)c3ccccc23)CC1,inactive,
CCc1c(C)nc(SCC(=O)N2CCCCC2C)[nH]c1=O (stereo not given),"inconclusive [inhibitor, single point]",
Cc1cccc(C)c1OCCCCCNCCO,active: 20 µM,
CCn1c(Cc2cccs2)nnc1SCC(=O)c1ccc(C)cc1,active: 22.4 µM,
CCOc1ccc(N=C(NC#N)SCC)cc1,"inconclusive [inhibitor, single point]",
O=C(CSc1nnc(CNc2ccc(F)cc2)o1)N1c2ccccc2Sc2ccccc21,inactive,
Oc1ccc(-c2n[nH]c(=S)n2Cc2ccco2)cc1,"inconclusive [inhibitor, partial curve]",

Structure (SMILES),Potency,"activity, negative = inhibition"
COc1ccc(CN2C(=O)c3ccccc3C2C(=O)NCc2cccnc2)c(OC)c1 (stereo not given),"inconclusive [inhibitor, single point]",
O=[N+]([O-])C(=C1NCCN1)C(Cl)=C(Cl)Cl,inactive,
CCOC(=O)c1c(NC(=O)CSc2nncs2)sc(C)c1-c1ccccc1,"inconclusive [inhibitor, partial curve]",
CSc1ccccc1NC(=O)c1cccnc1,"inconclusive [inhibitor, single point]",
CCOC(=O)c1sc(NC(=O)CN(CC(C)C)CC(C)C)c(C(=O)OCC)c1C,active: 22.4 µM,
O=C(c1ccc2ccccc2c1)C1CCCN(S(=O)(=O)c2cccnc2)C1 (stereo not given),active: 25.1 µM,
COc1cc2c(cc1OC)CN(c1nc(-c3cccnc3)nc3ccccc13)CC2,"inconclusive [inhibitor, single point]",
Cc1ccc(S(=O)(=O)N2CCN(c3cc4c(cc3[N+](=O)[O-])n(C)c(=O)n4C)CC2)cc1,"inconclusive [inhibitor, single point]",
CCOC(=O)c1cnc(-c2ccccc2)nc1N,"inconclusive [inhibitor, partial curve]",
Cc1ccc2nc(-c3ccc(NC(=O)CSc4ccccc4)cc3)[nH]c2c1,"inconclusive [inhibitor, single point]",
Nc1c(C(=O)NCCc2ccccc2)sc2nc(N3CCOCC3)c3c(c12)CCCC3,"inconclusive [inhibitor, partial curve]",
CC(=O)Nc1cccc(-c2csc(Nc3cc(C)ccn3)n2)c1,"inconclusive [inhibitor, single point]",
CCOc1cccc(OCCOCCN(C)C)c1,inactive,
CCn1cc(C(=O)NCCCN2CCCC2)c(=O)c2cc(S(=O)(=O)N3CCc4ccccc4C3)ccc21,"inconclusive [inhibitor, single point]",
Cc1ccc2c(c1)C(O)(CC(=O)/C=C/C=C/c1ccccc1)C(=O)N2 (stereo not given),inactive,
O=C1C2C3C=CC(C3)C2C(=O)N1/N=C/c1cn(Cc2ccc(F)cc2)c2ccccc12 (stereo not given),active: 25.1 µM,
Cc1ccc(C)c(OCC(=O)Nc2nonc2NC(=O)COc2cc(C)ccc2C)c1,inactive,
O=C(O)c1cc2c([nH]c1=O)CCCC2,"inconclusive [inhibitor, single point]",
O=C(CSc1ccc(C(F)(F)F)cc1[N+](=O)[O-])Nc1ccccc1,"inconclusive [inhibitor, partial curve]",
c1nnc2c3c4c(sc3ncn12)CCC4,inactive,
Cc1ccc(-c2nc3cnccn3c2Nc2ccccc2)o1,"inconclusive [inhibitor, partial curve]",
Cc1cc(C(=O)COC(=O)Cc2n[nH]c(=O)c3ccccc23)c(C)n1-c1ccc2c(c1)OCO2,inactive,
